Measurements: the supplement of paper PMC10037445
Over roughly 2,900 compounds, “IRF Lucia reporter activity, fold change vs agonist alone” has its median near 0.9; the highest 2% begin near 2.8. This is one part of the list.

Tests used:
RAW-Dual [1] = assay: IRF Lucia reporter activity, fold change vs agonist alone; cytotoxicity flag (confluency mask): not cytotoxic; higher = enhanced IRF activity
Method in brief: (§1)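 Library stock was pin-tooled at 50 nL into 384-well plates of RAW-Dual macrophages (50,000 cells/well, DMEM), followed 1 h later by a PRR agonist, and the cells were kept at 37 °C, 5% CO2. Supernatant collected after 20 hours was read for IRF by QuantiLuc luminescence and for NF-κB by QuantiBlue absorbance at 620 nm. Reporter activity is fold change over agonist-alone wells, and a well counted as cytotoxic when its IncuCyte confluency was below 70% of agonist controls in both mask sets.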

RAW-Dual [2] = assay: IRF Lucia reporter activity, fold change vs agonist alone; higher = enhanced IRF activity; settings: agonist: MPLA (TLR4) […]
Method in brief: as §1

RAW-Dual [3] = assay: IRF Lucia reporter activity, fold change vs agonist alone; cytotoxicity flag (confluency mask): cytotoxic (confluency <70% of control); higher = enhanced IRF activity
Method in brief: as §1

[4] = agonist: 3'3'-cGAMP (STING) 10 ug/mL
[5] = library stock concentration (final ~1000-fold dilution): 10 mM, cytotoxicity flag (confluency mask): not cytotoxic
[6] = library stock concentration (final ~1000-fold dilution): 10 mM, cytotoxicity flag (confluency mask): cytotoxic (confluency <70% of control)

SMILES: CC(Nc1nc(N2CCCC2)nc2ccccc12)c1ccccc1 (configuration not stated) (library stock concentration (final ~1000-fold dilution): 10 mM)
- IRF Lucia reporter activity (RAW-Dual [1]; [4]): 0.531
- IRF Lucia reporter activity (RAW-Dual [1]; agonist: LPS (TLR4) 0.1 ug/mL): 1.39

SMILES: O=S(=O)(O)CCCS(=O)(=O)O
- IRF Lucia reporter activity (RAW-Dual [2]; library stock concentration (final ~1000-fold dilution): 10 mM water, cytotoxicity flag (confluency mask): not cytotoxic): 1.09

SMILES: O=S(=O)(O)CCCS(=O)(=O)O (library stock concentration (final ~1000-fold dilution): 10 mM water)
- IRF Lucia reporter activity (RAW-Dual [1]; [4]): 1.36
- IRF Lucia reporter activity (RAW-Dual [1]; agonist: LPS (TLR4) 0.1 ug/mL): 0.821

SMILES: Nc1cccc2c1CN(C1CCC(=O)NC1=O)C2=O (configuration not stated)
- IRF Lucia reporter activity (RAW-Dual [2]; [5]): 1.06

SMILES: Nc1cccc2c1CN(C1CCC(=O)NC1=O)C2=O (configuration not stated) (library stock concentration (final ~1000-fold dilution): 10 mM)
- IRF Lucia reporter activity (RAW-Dual [1]; [4]): 1.06
- IRF Lucia reporter activity (RAW-Dual [1]; agonist: LPS (TLR4) 0.1 ug/mL): 0.986

SMILES: Cc1cccc2c3c(ccc12)C1=C(C(=O)C3=O)C(C)CO1 (configuration not stated) (library stock concentration (final ~1000-fold dilution): 10 mM)
- IRF Lucia reporter activity (RAW-Dual [1]; [4]): 0.0995
- IRF Lucia reporter activity (RAW-Dual [1]; agonist: LPS (TLR4) 0.1 ug/mL): 0.359

SMILES: NC(=S)N/N=C/c1ncccc1N (library stock concentration (final ~1000-fold dilution): 10 mM)
- IRF Lucia reporter activity (RAW-Dual [1]; [4]): 0.432
- IRF Lucia reporter activity (RAW-Dual [1]; agonist: LPS (TLR4) 0.1 ug/mL): 0.833

SMILES: NC(=S)N/N=C/c1ncccc1N
- IRF Lucia reporter activity (RAW-Dual [2]; [5]): 0.705

SMILES: CCCCCCCCOC(=O)c1cc(O)c(O)c(O)c1 (library stock concentration (final ~1000-fold dilution): 10 mM)
- IRF Lucia reporter activity (RAW-Dual [3]; [4]): 0.0201
- IRF Lucia reporter activity (RAW-Dual [3]; agonist: LPS (TLR4) 0.1 ug/mL): 0.24

SMILES: COc1ccc(CNC(=O)Nc2ncc([N+](=O)[O-])s2)cc1
- IRF Lucia reporter activity (RAW-Dual [2]; [5]): 0.897

SMILES: COc1ccc(CNC(=O)Nc2ncc([N+](=O)[O-])s2)cc1 (library stock concentration (final ~1000-fold dilution): 10 mM)
- IRF Lucia reporter activity (RAW-Dual [1]; [4]): 0.715
- IRF Lucia reporter activity (RAW-Dual [1]; agonist: LPS (TLR4) 0.1 ug/mL): 0.64

SMILES: Cn1c2ccccc2c2c3c(c4c5ccccc5n(CCC#N)c4c21)CNC3=O
- IRF Lucia reporter activity (RAW-Dual [2]; [5]): 0.203

SMILES: Cn1c2ccccc2c2c3c(c4c5ccccc5n(CCC#N)c4c21)CNC3=O (library stock concentration (final ~1000-fold dilution): 10 mM)
- IRF Lucia reporter activity (RAW-Dual [1]; [4]): 0.0296
- IRF Lucia reporter activity (RAW-Dual [1]; agonist: LPS (TLR4) 0.1 ug/mL): 0.187

SMILES: O=C(O)c1ccc2c3c1cccc3c(=O)n1c3ccccc3nc21 (library stock concentration (final ~1000-fold dilution): 10 mM)
- IRF Lucia reporter activity (RAW-Dual [1]; [4]): 0.485
- IRF Lucia reporter activity (RAW-Dual [1]; agonist: LPS (TLR4) 0.1 ug/mL): 0.247

SMILES: N#CC1CCCN1C(=O)CNC12CC3CC(CC(O)(C3)C1)C2 (configuration not stated)
- IRF Lucia reporter activity (RAW-Dual [2]; [5]): 0.924

SMILES: N#CC1CCCN1C(=O)CNC12CC3CC(CC(O)(C3)C1)C2 (configuration not stated) (library stock concentration (final ~1000-fold dilution): 10 mM)
- IRF Lucia reporter activity (RAW-Dual [1]; [4]): 0.994
- IRF Lucia reporter activity (RAW-Dual [1]; agonist: LPS (TLR4) 0.1 ug/mL): 1.05

SMILES: O=[N+]([O-])c1cnc(Sc2nnc(O)n2-c2ccc3c(c2)OCCO3)s1 (library stock concentration (final ~1000-fold dilution): 10 mM)
- IRF Lucia reporter activity (RAW-Dual [1]; [4]): 0.0101
- IRF Lucia reporter activity (RAW-Dual [1]; agonist: LPS (TLR4) 0.1 ug/mL): 0.00928

SMILES: C/C(=N\NC(=O)c1cccc(S(=O)(=O)N2CCOCC2)c1)c1cc(Cl)ccc1O (library stock concentration (final ~1000-fold dilution): 10 mM)
- IRF Lucia reporter activity (RAW-Dual [1]; [4]): 0.735
- IRF Lucia reporter activity (RAW-Dual [1]; agonist: LPS (TLR4) 0.1 ug/mL): 1.74

SMILES: C=CC(=O)Nc1cc(Nc2nccc(-c3cn(C)c4ccccc34)n2)c(OC)cc1N(C)CCN(C)C.CS(=O)(=O)O (library stock concentration (final ~1000-fold dilution): 10 mM)
- IRF Lucia reporter activity (RAW-Dual [3]; [4]): 0.144
- IRF Lucia reporter activity (RAW-Dual [3]; agonist: LPS (TLR4) 0.1 ug/mL): 0.936

SMILES: C=CC(=O)Nc1cc(Nc2nccc(-c3cn(C)c4ccccc34)n2)c(OC)cc1N(C)CCN(C)C.CS(=O)(=O)O
- IRF Lucia reporter activity (RAW-Dual [2]; [6]): 0.428

SMILES: CC1CCC2C(C)(C)C3CC12CCC3(C)O (configuration not stated)
- IRF Lucia reporter activity (RAW-Dual [2]; [6]): 1.23

SMILES: CC1CCC2C(C)(C)C3CC12CCC3(C)O (configuration not stated) (library stock concentration (final ~1000-fold dilution): 10 mM)
- IRF Lucia reporter activity (RAW-Dual [3]; [4]): 1.15
- IRF Lucia reporter activity (RAW-Dual [3]; agonist: LPS (TLR4) 0.1 ug/mL): 1.04

SMILES: O=c1cccccc1O (library stock concentration (final ~1000-fold dilution): 10 mM)
- IRF Lucia reporter activity (RAW-Dual [1]; [4]): 0.664
- IRF Lucia reporter activity (RAW-Dual [1]; agonist: LPS (TLR4) 0.1 ug/mL): 0.952

SMILES: O=c1cccccc1O
- IRF Lucia reporter activity (RAW-Dual [2]; [5]): 1.24

SMILES: CCC(F)(F)c1cc(N2CCC(S(C)(=O)=O)CC2)nc2sc(C(N)=O)c(N)c12 (library stock concentration (final ~1000-fold dilution): 10 mM)
- IRF Lucia reporter activity (RAW-Dual [1]; [4]): 0.22
- IRF Lucia reporter activity (RAW-Dual [1]; agonist: LPS (TLR4) 0.1 ug/mL): 0.156

SMILES: Cc1cn(C2OC(CO)C(O)C2F)c(=O)[nH]c1=O (configuration not stated)
- IRF Lucia reporter activity (RAW-Dual [2]; [5]): 1.11

SMILES: Cc1cn(C2OC(CO)C(O)C2F)c(=O)[nH]c1=O (configuration not stated) (library stock concentration (final ~1000-fold dilution): 10 mM)
- IRF Lucia reporter activity (RAW-Dual [1]; [4]): 1.02
- IRF Lucia reporter activity (RAW-Dual [1]; agonist: LPS (TLR4) 0.1 ug/mL): 0.922

SMILES: CC(=O)N1CCN(CCOc2ccc(C3CCN(C4=Nn5c(nnc5C(F)(F)F)CC4)CC3)cc2)CC1 (library stock concentration (final ~1000-fold dilution): 10 mM)
- IRF Lucia reporter activity (RAW-Dual [3]; [4]): 0.627
- IRF Lucia reporter activity (RAW-Dual [3]; agonist: LPS (TLR4) 0.1 ug/mL): 0.381

SMILES: CC(=O)N1CCN(CCOc2ccc(C3CCN(C4=Nn5c(nnc5C(F)(F)F)CC4)CC3)cc2)CC1
- IRF Lucia reporter activity (RAW-Dual [2]; [6]): 0.28
